Assay results published in PubChem BioAssay (NCATS).
Several values for one entry are separate records, joined by “and”; a condition that tells them apart may be missing. Equal entries are not always repeated. The shares of active, inactive and inconclusive entries below differ from those in the screen. For part of these data: Potencies beside an inconclusive call are fits to weak or partial responses and may not hold up. For part of these data: “Side channel” marks fits to a control or component signal instead of the main read-out. Activity calls are given as the source filed them. Unless noted, calls come from the whole dose curve; as a rule, active = well fitted curve in the direction sought with a large enough effect; inconclusive = small, poorly fitted or top-dose-only effect, or another doubt; inactive = no such curve, though single readings can be large; an effect the other way counts as inactive or inconclusive.

What was measured:
[1] = target: D(1A) dopamine receptor (Homo sapiens) (UniProt P21728); assay: HTS Assay for Allosteric Agonists of the Human D1 Dopamine Receptor: Primary Screen for Antagonists (AID 488983);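 note: calcium flux response to an EC80 dopamine challenge measured with no-wash dye; nearly all actives have a fitted effect of over 65% in size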; note: potency is the fitted concentration of half-maximal effect
Sequence of UniProt P21728 (P21728 whole entry, looked up): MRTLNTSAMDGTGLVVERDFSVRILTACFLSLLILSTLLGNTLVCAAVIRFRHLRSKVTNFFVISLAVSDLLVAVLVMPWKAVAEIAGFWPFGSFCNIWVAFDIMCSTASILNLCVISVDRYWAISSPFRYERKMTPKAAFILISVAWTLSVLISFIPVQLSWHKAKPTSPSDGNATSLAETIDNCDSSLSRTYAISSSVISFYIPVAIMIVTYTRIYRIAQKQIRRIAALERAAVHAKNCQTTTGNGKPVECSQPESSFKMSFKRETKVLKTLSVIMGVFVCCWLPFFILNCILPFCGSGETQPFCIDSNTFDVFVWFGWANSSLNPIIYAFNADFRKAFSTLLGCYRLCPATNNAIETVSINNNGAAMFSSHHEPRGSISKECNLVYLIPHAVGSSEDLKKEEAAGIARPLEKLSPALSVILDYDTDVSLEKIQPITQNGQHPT
Procedure, shortened: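 In this primary screen, compounds are applied to calcium-dye-loaded HEK293 T-REx cells with force-coupled D1 expression induced overnight at 30 C. An EC80 of dopamine follows the 180 s compound phase, and calcium is monitored for a further 180 s.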

[2] = qHTS for Inhibitors of ATXN expression: Validation (AID 588378); note: potency is the fitted concentration of half-maximal effect; nearly all actives have a fitted effect of over 75% in size
Procedure, shortened: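 Luciferase luminescence (Bright-Glo) from an ATXN2-FFLuc HEK293 line after 24 h compound exposure at 37 °C, preceded by a CellTiter-Fluor fluorescence viability read. Serial dilutions of a reference ATXN2 inhibitor and a luciferase inhibitor served as controls.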

[3] = target: ATPase family AAA domain-containing protein 5 (Homo sapiens) (UniProt Q96QE3); assay: Validation screen for small molecules that inhibit ELG1-dependent DNA repair in human embryonic kidney (HEK293T) cells expressing luciferase-tagged ELG1 (AID 493107); note: nearly all actives have a fitted effect of over 70% in size; note: potency is the fitted concentration of half-maximal effect
Sequence of UniProt Q96QE3 (Q96QE3 whole entry, looked up, the tested form may be a part): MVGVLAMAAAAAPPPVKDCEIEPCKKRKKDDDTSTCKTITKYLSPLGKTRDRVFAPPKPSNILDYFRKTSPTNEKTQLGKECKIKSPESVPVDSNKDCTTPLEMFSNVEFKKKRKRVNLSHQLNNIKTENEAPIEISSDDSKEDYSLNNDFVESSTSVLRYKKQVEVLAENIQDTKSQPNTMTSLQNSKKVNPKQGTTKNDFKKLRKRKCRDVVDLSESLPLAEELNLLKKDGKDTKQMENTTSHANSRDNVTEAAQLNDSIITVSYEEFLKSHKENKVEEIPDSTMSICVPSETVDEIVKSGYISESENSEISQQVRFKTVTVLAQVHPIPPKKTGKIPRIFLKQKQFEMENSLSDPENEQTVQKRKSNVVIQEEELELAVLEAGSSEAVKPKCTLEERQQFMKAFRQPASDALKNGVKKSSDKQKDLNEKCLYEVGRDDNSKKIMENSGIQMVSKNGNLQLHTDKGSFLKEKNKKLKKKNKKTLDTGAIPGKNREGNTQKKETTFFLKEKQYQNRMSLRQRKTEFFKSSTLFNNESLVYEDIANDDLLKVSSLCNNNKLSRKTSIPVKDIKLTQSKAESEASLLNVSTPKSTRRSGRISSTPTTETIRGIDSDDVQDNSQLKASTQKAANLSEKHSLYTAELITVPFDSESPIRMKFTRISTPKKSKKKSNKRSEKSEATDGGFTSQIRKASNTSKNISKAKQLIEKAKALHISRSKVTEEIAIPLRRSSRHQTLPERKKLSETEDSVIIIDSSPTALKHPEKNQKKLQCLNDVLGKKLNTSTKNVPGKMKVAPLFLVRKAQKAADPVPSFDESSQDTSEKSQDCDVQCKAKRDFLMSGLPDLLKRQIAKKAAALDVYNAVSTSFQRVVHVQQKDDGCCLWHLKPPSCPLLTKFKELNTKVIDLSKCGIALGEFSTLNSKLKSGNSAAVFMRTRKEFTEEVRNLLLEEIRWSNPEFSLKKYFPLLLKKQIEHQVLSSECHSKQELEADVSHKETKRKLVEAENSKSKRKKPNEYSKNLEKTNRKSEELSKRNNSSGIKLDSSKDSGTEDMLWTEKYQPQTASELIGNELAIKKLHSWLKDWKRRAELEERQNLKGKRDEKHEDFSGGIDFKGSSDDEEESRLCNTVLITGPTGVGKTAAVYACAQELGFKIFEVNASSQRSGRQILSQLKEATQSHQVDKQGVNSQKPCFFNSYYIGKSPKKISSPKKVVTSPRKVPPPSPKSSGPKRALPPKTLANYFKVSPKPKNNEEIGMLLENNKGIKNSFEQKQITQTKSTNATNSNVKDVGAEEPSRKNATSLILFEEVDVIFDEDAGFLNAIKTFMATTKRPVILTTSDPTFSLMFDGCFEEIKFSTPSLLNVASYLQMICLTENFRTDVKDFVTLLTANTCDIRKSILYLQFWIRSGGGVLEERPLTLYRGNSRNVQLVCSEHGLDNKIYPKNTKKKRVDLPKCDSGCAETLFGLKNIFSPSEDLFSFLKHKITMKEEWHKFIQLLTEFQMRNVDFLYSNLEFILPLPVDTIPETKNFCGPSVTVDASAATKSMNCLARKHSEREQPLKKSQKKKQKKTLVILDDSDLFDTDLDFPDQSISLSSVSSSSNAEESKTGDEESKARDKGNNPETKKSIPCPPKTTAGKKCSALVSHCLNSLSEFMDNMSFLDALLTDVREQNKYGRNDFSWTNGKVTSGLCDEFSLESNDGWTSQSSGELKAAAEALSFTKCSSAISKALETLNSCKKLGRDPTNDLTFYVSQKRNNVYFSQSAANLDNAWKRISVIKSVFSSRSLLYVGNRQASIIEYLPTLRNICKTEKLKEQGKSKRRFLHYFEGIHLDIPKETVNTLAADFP
Procedure, shortened: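 Compounds reducing 5-fluorouridine-driven ELG1-luciferase signal in HEK293T cells were scored; exposure lasted 16 hr at 37 °C with luminescence detected via ONE-Glo.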

[4] = qHTS for Inhibitors of ATXN expression: Validation of Cytotoxic Assay (AID 588349); note: potency is the fitted concentration of half-maximal effect
Procedure, shortened: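 Toxicity of test compounds toward HEK293 cells is scored from cellular ATP content measured by CellTiter Glo. Cells receive titrated doses and incubate 72 hr at 37 degrees C beforehand.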

[5] = target: Estrogen receptor (Homo sapiens) (UniProt P03372); assay: qHTS assay for small molecule antagonists of estrogen receptor alpha signaling (AID 588513; active = well fitted curve in the direction sought with a large enough effect in the signal ratio, with a control signal flat, not every such curve was filed as active; inconclusive = small, poorly fitted or top-dose-only effect, or effect the other way, or a change in a side signal; inactive = no such curve, though single readings can be large or run the other way; the % refers to the signal ratio; note: % is set by controls: 0 for no effect and ±100 for the full control effect); conditions: ER-alpha-UAS-bla HEK293, beta-lactamase ratio, antagonist mode; activity, negative = inhibition: at 76.9 µM (top of the series) unless noted
Sequence of UniProt P03372 (P03372 whole entry, looked up): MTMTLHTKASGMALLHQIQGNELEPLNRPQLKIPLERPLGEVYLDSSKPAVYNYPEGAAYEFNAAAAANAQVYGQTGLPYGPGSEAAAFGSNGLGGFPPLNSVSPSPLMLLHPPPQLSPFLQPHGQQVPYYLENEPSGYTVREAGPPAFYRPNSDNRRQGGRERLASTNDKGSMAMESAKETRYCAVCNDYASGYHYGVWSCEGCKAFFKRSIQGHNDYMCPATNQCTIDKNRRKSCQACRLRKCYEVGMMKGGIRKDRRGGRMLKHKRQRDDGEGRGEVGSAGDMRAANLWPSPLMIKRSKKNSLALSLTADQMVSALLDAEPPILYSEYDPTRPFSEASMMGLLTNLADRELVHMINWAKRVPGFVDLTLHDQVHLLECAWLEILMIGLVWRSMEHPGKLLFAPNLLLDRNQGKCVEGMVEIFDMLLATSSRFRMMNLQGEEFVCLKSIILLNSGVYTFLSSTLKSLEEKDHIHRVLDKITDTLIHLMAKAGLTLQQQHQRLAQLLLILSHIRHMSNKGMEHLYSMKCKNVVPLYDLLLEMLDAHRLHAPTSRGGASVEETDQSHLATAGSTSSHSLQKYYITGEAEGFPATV
Procedure, shortened: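 Antagonist mode: inhibition of 0.5 nM 17-beta-estradiol-driven beta-lactamase reporter in HEK 293 ER-alpha-UAS-bla cells, 18 h at 37C, CCF4 readout after 2 h at RT. Normalised to estradiol and DMSO; titration fitted to Hill.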

[6] = Nrf2 qHTS screen for inhibitors: Validation (AID 493153; active = well fitted inhibition curve with a large enough effect in the main read-out, with a control signal flat, not every such curve was filed as active; inconclusive = small, poorly fitted or top-dose-only effect, or effect the other way, or a change in a side signal; inactive = no such curve, though single readings can be large or run the other way; note: potency is the fitted concentration of half-maximal effect)
Procedure, shortened: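 In this counterscreened reporter format, each well gives two signals: CellTiter-Fluor fluorescence for cytotoxicity and ARE-luciferase luminescence for Nrf2 function. A549 ARE_Fluc cells in 5% FBS OPTI-MEM were exposed to compound titrations for 18-24 h.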

[7] = target: Ubiquitin carboxyl-terminal hydrolase 1 (Homo sapiens) (UniProt O94782); assay: Inhibitors of USP1/UAF1: Pilot qHTS (AID 504865); note: potency is the fitted concentration of half-maximal effect;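 note: rhodamine fluorescence freed from ubiquitin-rhodamine substrate followed over time; nearly all actives have a fitted effect of over 35% in size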
Sequence of UniProt O94782 (O94782 whole entry, looked up): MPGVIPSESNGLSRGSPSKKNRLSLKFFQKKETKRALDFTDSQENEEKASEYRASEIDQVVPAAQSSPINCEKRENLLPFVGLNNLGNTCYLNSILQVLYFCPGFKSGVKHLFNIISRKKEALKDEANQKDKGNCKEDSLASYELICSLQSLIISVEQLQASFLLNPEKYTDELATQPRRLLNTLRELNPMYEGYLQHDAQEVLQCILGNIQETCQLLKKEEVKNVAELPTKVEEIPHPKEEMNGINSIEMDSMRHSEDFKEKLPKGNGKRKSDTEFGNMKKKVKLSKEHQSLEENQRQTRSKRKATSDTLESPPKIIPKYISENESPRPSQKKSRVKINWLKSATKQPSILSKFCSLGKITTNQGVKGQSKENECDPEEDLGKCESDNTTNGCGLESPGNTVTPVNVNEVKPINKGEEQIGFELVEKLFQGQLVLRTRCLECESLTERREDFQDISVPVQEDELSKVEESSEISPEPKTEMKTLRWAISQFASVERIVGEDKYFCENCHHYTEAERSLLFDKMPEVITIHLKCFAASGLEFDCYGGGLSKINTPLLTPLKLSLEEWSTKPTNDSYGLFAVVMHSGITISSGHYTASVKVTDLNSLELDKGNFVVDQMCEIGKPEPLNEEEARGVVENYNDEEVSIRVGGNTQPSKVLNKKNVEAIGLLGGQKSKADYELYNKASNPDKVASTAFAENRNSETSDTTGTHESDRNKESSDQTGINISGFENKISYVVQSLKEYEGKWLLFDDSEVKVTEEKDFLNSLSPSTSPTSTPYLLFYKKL
Procedure, shortened: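 Deubiquitinase activity followed as kinetic rhodamine fluorescence release from 150 nM Ub-Rho. 1 nM USP1/UAF1 with compound, after 15 min room-temperature preincubation, in HEPES pH 7.8 buffer containing TCEP, EDTA, BSA and Tween-20.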

[8] = target: D(1A) dopamine receptor (Homo sapiens) (UniProt P21728); assay: HTS Assay for Allosteric Agonists of the Human D1 Dopamine Receptor: Primary Screen for Agonists (AID 488981); note: 0% is about no effect
Procedure, shortened: (§1)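 Tetracycline-induced HEK293 T-REx cells force-coupled to calcium signalling were incubated overnight at 30 C and dye-loaded at room temperature. Calcium flux over 180 s after compound addition flagged agonists; a further 180 s read after EC20 dopamine flagged potentiators.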

[9] = target: D(1A) dopamine receptor (Homo sapiens) (UniProt P21728); assay: HTS Assay for Allosteric Agonists of the Human D1 Dopamine Receptor: Primary Screen for Potentiators (AID 488982); note: potency is the fitted concentration of half-maximal effect
Procedure, shortened: as §1

[10] = target: Peptidyl-prolyl cis-trans isomerase NIMA-interacting 1 (Homo sapiens) (UniProt Q13526); assay: qHTS Validation Assay to Find Inhibitors of Pin1 (AID 504536; active = well fitted inhibition curve with a large enough effect in the polarisation, with a control signal flat, not every such curve was filed as active; inconclusive = small, poorly fitted or top-dose-only effect, or effect the other way; the % refers to the polarisation; note: potency is the fitted concentration of half-maximal effect)
Sequence of UniProt Q13526 (Q13526 whole entry, looked up): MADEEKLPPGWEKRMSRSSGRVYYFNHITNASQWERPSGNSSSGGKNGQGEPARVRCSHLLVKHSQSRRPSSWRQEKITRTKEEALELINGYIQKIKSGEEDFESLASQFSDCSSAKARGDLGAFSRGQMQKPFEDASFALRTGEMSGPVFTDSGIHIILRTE
Procedure, shortened: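 Fluorescence polarization competition: compounds (titration) displace HiFluor-488-labeled Pin1-1b peptide from Pin1 (0.3 uM final) in pH 7.5 HEPES buffer with DTT, 10 min at room temperature; %Activity normalized to no-enzyme wells, curves fitted.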

[11] = target: Phosphoglycerate kinase, glycosomal (Trypanosoma brucei brucei) (UniProt P07378); assay: qHTS Validation Assay to Find Inhibitors of Phosphoglycerate Kinase (AID 504547); conditions: enzymatic PGK inhibition, coupled luminescence read-out; note: potency is the fitted concentration of half-maximal effect
Procedure, shortened: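 In TEA buffer (100mM, pH 7.6) containing 5mM MgCl2 and 0.01% Tween-20, the GAPDH-coupled PGK reaction proceeded for 60 minutes at room temperature before a single luminescence reading using Kinase-Glo Plus.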

[12] = target: Tyrosyl-DNA phosphodiesterase 1 (Homo sapiens) (UniProt Q9NUW8); assay: Confirmation Assay for Inhibitors of Tyrosyl-DNA Phosphodiesterase (TDP1) (AID 489007); conditions: recombinant human TDP1 enzymatic activity, dose-response; note: potency is the fitted concentration of half-maximal effect; nearly all actives have a fitted effect of over 40% in size
Procedure, shortened: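 Loss of AlphaScreen signal reports Tdp1 cleavage of a dual-labelled DNA substrate. Conditions: 1 nM E. coli-derived enzyme, 15 nM substrate, 15 min compound preincubation, 5 min reaction, 10 min bead incubation, all at room temperature.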

[13] = target: ATP-dependent 6-phosphofructokinase (Trypanosoma brucei brucei) (UniProt O15648); assay: qHTS Assay to Find Inhibitors of T. brucei phosphofructokinase: hit validation (AID 492961); note: potency is the fitted concentration of half-maximal effect
Sequence of UniProt O15648 (O15648 whole entry, looked up): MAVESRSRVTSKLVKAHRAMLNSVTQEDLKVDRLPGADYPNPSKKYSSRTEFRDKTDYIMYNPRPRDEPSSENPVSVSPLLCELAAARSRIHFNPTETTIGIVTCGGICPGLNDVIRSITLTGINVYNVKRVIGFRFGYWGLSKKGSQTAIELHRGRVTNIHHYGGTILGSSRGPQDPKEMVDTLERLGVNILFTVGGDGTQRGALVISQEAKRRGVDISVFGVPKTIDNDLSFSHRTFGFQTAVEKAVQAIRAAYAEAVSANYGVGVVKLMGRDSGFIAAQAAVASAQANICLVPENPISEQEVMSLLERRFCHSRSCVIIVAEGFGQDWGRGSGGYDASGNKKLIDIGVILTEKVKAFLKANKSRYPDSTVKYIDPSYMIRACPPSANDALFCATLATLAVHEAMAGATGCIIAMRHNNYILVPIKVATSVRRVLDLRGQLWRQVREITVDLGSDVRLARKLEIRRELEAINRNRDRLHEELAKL
Procedure, shortened: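 PFK 1.25 nM, F6P 0.5 mM, ATP 0.1 mM, MgCl2 5 mM, 0.1 M TEA pH 8.0, Tween20 0.01%, BSA 0.1%; 45 min RT. ADP-Glo two-step detection, luminescence. qHTS titration; curve fitting with curve-class categorization.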

[14] = target: phosphoglycerate mutase (Leishmania major) (UniProt Q4Q090); assay: qHTS Validation Assay to Find Inhibitors of Phosphoglycerate Mutase (AID 504548); conditions: Potency: inhibition qHTS;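 note: end-point luminescence from Kinase-GloPlus after the PGAM reaction; % is set by controls: 0 for no effect and ±100 for the full control effect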
Sequence of UniProt Q4Q090 (Q4Q090 1-553): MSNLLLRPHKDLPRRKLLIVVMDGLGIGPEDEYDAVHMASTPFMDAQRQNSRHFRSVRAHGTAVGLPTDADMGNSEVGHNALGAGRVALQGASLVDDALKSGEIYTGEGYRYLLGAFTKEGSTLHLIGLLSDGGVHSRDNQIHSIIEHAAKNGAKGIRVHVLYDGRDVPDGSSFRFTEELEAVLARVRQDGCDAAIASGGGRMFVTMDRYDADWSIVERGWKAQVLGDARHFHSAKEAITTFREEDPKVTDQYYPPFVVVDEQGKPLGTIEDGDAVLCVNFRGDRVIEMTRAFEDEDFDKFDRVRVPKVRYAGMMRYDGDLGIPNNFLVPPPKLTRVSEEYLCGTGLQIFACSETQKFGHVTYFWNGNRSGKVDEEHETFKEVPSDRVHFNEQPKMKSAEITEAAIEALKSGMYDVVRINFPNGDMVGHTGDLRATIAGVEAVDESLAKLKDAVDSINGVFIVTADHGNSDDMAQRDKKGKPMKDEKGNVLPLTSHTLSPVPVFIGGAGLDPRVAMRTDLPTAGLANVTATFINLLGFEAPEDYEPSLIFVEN
Procedure, shortened: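 Inhibition of L. major PGAM was assessed by Kinase-GloPlus luminescence following a 45-minute room-temperature reaction with enzyme at 1.25nM final.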

[15] = Validation screen for small molecules that induce DNA re-replication in SW480 colon adenocarcinoma cells (AID 504364); note: potency is the fitted concentration of half-maximal effect
Procedure, shortened: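 Hoechst-stained SW480 nuclei, imaged at 405 nm excitation after 48 hr compound exposure, were counted for elevated DNA content as the re-replication signal.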

[16] = Inducers of the Endoplasmic Reticulum Stress Response (ERSR) in human glioma: Validation (AID 504836); note: potency is the fitted concentration of half-maximal effect
Procedure, shortened: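 Stably transfected U87-MG human glioma cells carrying a GRP78-based luminescent sensor were seeded at 1000 cells/well, pin-dosed with compounds and incubated 16 h. Luciferase reagent was then added, and end-point luminescence was read after 10 min at room temperature.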
Tags give direction and shape of the fitted curve or compound fluorescence and quenching.

SMILES: CN1CCC(=C2c3ccccc3CC(=O)c3sccc32)CC1
- Potency [1]: active: 2 µM
- Potency [2]: inconclusive: 11.2 µM [inhibitor, partial curve, poor fit]

SMILES: CCCC(CCC)C(=O)O
- Potency [1]: inactive
- Potency [3]: inconclusive: 0.13 µM [activator, full curve, poor fit]
- Potency [4]: inactive
- activity, negative = inhibition [5]: inconclusive: 40.6% [at 2.03 mM]

SMILES: NC(=O)OCC(COC(N)=O)c1ccccc1
- Potency [3]: inactive
- Potency [6]: inactive
- Potency [4]: inactive

SMILES: Cc1cccc(-c2[nH]c(C(C)(C)C)nc2-c2ccc3nccnc3c2)n1
- Potency [3]: inconclusive: 29.1 µM [inhibitor, single point]
- Potency [6]: inconclusive: 14.6 µM [inhibitor, single point]
- Potency [7]: inconclusive: 100 µM [inhibitor, partial curve, poor fit]
- Potency [2]: inconclusive: 20 µM [inhibitor, single point]

SMILES: O=C1c2c(O)cc(O)cc2OC(c2ccc(O)c(O)c2)C1O (stereo unspecified)
- Potency [8]: inactive
- Potency [9]: inconclusive: 0.0366 µM [activator, full curve, poor fit]
- Potency [3]: inactive
- Potency [10]: inconclusive: 6.01 µM [quencher, side channel, partial curve, poor fit]
- Potency [11]: inconclusive: 26.9 µM [inhibitor, single point]

SMILES: COc1ccc(C(=O)CC(=O)c2ccc(C(C)(C)C)cc2)cc1
- Potency [12]: active: 25.1 µM
- Potency [13]: inconclusive: 20 µM [falling, partial curve]
- Potency [7]: inactive

SMILES: C[C@H]1c2cccc(O)c2C(O)=C2C(=O)[C@]3(O)C(O)=C(C(N)=O)C(=O)[C@@H](N(C)C)[C@@H]3[C@@H](O)[C@@H]21
- Potency [9]: inconclusive: 0.82 µM [activator, full curve, poor fit]
- Potency [6]: inconclusive: 23.1 µM [falling, partial curve]
- Potency [14]: inactive

SMILES: O=c1c(O)c(-c2cc(O)c(O)c(O)c2)oc2cc(O)cc(O)c12
- Potency [1]: inconclusive: 8.91 µM [activator, partial curve]
- Potency [3]: inactive
- Potency [10]: inconclusive: 0.953 µM [quencher, side channel, full curve]
- Potency [7]: inconclusive: 31.6 µM [inhibitor, partial curve] and inconclusive: 39.8 µM [inhibitor, partial curve]
- Potency [4]: inconclusive: 20 µM [cytotoxic, single point]
- Potency [2]: inconclusive: 20 µM [inhibitor, partial curve, poor fit]

SMILES: O=c1ccc2ccc(O)c(O)c2o1
- Potency [9]: inconclusive: 1.03 µM [activator, partial curve]
- Potency [3]: inconclusive: 6.51 µM [activator, single point]
- Potency [6]: inactive
- Potency [15]: inconclusive: 23.1 µM [activator, single point]
- Potency [10]: inconclusive: 21.3 µM [quencher, side channel, partial curve, poor fit]
- Potency [11]: inconclusive: 13.5 µM [inhibitor, partial curve]
- Potency [16]: inconclusive: 23.3 µM [activator, single point]

SMILES: CC(C)NCC(O)COc1ccc(COCCOC(C)C)cc1 (stereo unspecified)
- Potency [3]: inconclusive: 0.082 µM [inhibitor, full curve]

SMILES: OC(CN1CCN(c2cccc(Cl)c2)CC1)C(c1ccccc1)c1ccccc1 (stereo unspecified)
- Potency [15]: inconclusive: 23.1 µM [activator, partial curve, poor fit]

SMILES: COC(=O)C1=C(C)NC(C)=C(C(=O)OCCCN2CCC(c3ccccc3)(c3ccccc3)CC2)C1c1cccc([N+](=O)[O-])c1 (stereo unspecified)
- Potency [7]: inconclusive: 12.6 µM [inhibitor, partial curve, poor fit]

SMILES: CC1CC2C3CCC4=CC(=O)C=C[C@]4(C)[C@@]3(F)[C@@H](O)C[C@]2(C)[C@@]1(O)C(=O)CO (stereo partly specified)
- Potency [6]: active: 0.013 µM

SMILES: O=C(CCc1ccc(O)cc1)c1c(O)cc(O)cc1O
- Potency [3]: inconclusive: 2.91 µM [activator, full curve, poor fit]
- Potency [7]: inconclusive: 126 µM [inhibitor, partial curve, poor fit]

SMILES: O=C(NCCO[N+](=O)[O-])c1cccnc1
- Potency [7]: inactive

SMILES: COc1cc2nc(N3CCN(C(=O)c4ccco4)CC3)nc(N)c2cc1OC
- Potency [15]: inconclusive: 29.1 µM [activator, single point]
- Potency [16]: inactive
- Potency [2]: inconclusive: 39.8 µM [inhibitor, single point]

SMILES: COc1ccccc1N1CCN(CC(O)COc2cccc3ccccc23)CC1 (stereo unspecified)
- Potency [3]: inconclusive: 20.6 µM [inhibitor, single point]
- Potency [7]: inconclusive: 56.2 µM [inhibitor, partial curve, poor fit] and inconclusive: 63.1 µM [inhibitor, partial curve, poor fit]
- Potency [4]: inconclusive: 39.8 µM [cytotoxic, single point]
- Potency [2]: inconclusive: 31.6 µM [inhibitor, single point]
